Experimental data: the supplement of paper PMC8183993
Where “and” joins values, the source holds several entries; their conditions need not be identical. Identical values can stand only once. Counter-ions that a name gives are not always drawn. ± gives the standard deviation of the averaged measurements. Over roughly 3,200 compounds, “nuclei count (viability) relative to DMSO” has its median near 99; the lowest 2% begin near 16. The list shows a part of the results.

System: U2OS
Test: nuclei count (viability) relative to DMSO (% of DMSO); higher = more viable cells
Details: 10 µM; 24 h
Method: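 Primary image-based screen in U2OS cells: compounds at 10 uM for 24 h, then a 1 h o-propargyl-puromycin (OPP) pulse, click labelling, and high-throughput microscopy. Mean cytoplasmic OPP intensity and nuclei count were normalised to DMSO wells within each plate (DMSO = 100) and averaged over triplicate plates.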

SMILES	nuclei count
C[C@]12CC[C@H](O)CC1=CC[C@@H]1[C@@H]2CC[C@]2(C)C(=O)CC[C@@H]12 [Dehydroepiandrosterone (DHEA)]	114
COc1cc2c(c(OC)c1OC)-c1ccc(OC)c(=O)cc1[C@@H](NC(C)=O)CC2 [Colchicine]	17.7 ± 1.8
CC[C@@H](CO)NC(=O)[C@@H]1C=C2c3cccc4c3c(cn4C)C[C@H]2N(C)C1 [Methysergide maleate]	101
N#C[C@H](O[C@@H]1O[C@H](CO[C@@H]2O[C@H](CO)[C@@H](O)[C@H](O)[C@H]2O)[C@@H](O)[C@H](O)[C@H]1O)c1ccccc1 [Amygdalin]	101
CC(=O)N1CC[N+](C)(C)CC1 [4-Acetyl-1,1-dimethylpiperazinium iodide]	103
CN1C[C@H](CNC(=O)OCc2ccccc2)C[C@@H]2c3cccc4c3c(cn4C)C[C@H]21 [Metergoline]	99.6 ± 8.9
O=[N+]([O-])c1ncc[nH]1 [Azomycin (2-Nitroimidazole)]	105
O=C(NCNC(=O)NC1C(=O)NC(=O)N1CO)NC1C(=O)NC(=O)N1CO (configuration not stated) [Imidurea]	111
CC(=O)O[C@H]1CC[C@@]2(C)C(=CC[C@@H]3[C@@H]2CC[C@]2(C)C(=O)CC[C@@H]32)C1 [Dehydroisoandosterone 3-acetate]	96.3
Oc1ccc2c3c1O[C@H]1[C@@H](O)CC[C@@]4(O)[C@@H](C2)N(CC2CCC2)CC[C@]314 [Nalbuphine hydrochloride]	105
O=C1CN=C(c2cccc(Br)c2)c2oc3ccccc3c2N1	78.5
C[C@]12CC[C@H](O)C[C@H]1CC[C@@H]1[C@@H]2CC[C@]2(C)[C@@H](C3=CC(=O)OC3)CC[C@]12O [Digitoxigenin]	18.4
CC(C)c1cc2c(c(O)c1O)[C@@]1(C(=O)O)CCCC(C)(C)[C@@H]1CC2 [Carnosic acid]	94.5
CC(C)c1cccc(C(C)C)c1O [Propofol]	104
CC12NC(Cc3ccccc31)c1ccccc12 (single isomer, unassigned; (+)) [(+)-MK 801 maleate]	94.2
CCC(Oc1ccc(Cl)cc1)C(=O)OC1C[C@H]2CC[C@@H](C1)N2C (some centres not stated) [SM-21 maleate]	103
CCCN1CCC[C@@H]2Cc3n[nH]cc3C[C@H]21 [(-)-Quinpirole hydrochloride]	109
C=C1C[C@@H]2[C@H](CC[C@]3(C)C(=O)CC[C@@H]23)[C@@]2(C)C=CC(=O)C=C12 [Exemestane]	96.2 ± 2.1
CC(=O)[C@H]1CC[C@H]2[C@@H]3CC[C@H]4C[C@H](O)CC[C@]4(C)[C@H]3C(=O)C[C@]12C [Alfaxalone]	108
CC(=O)c1c(O)c(C)c(O)c(Cc2c(O)c3c(c(C(=O)/C=C/c4ccccc4)c2O)OC(C)(C)C=C3)c1O [Rottlerin]	87.7
C[C@H]1CNCCc2ccc(Cl)cc21 [Lorcaserin HCl]	95.6
CC1=NN=C(c2ccc(N)cc2)c2cc3c(cc2C1)OCO3	84.8
Cn1c2c(c3ccccc31)CCNCC2	102
CN1C(=O)CCS(=O)(=O)C1c1ccc(Cl)cc1 (configuration not stated) [Chlormezanone]	94.6 ± 11
O=P1(N(CCCl)CCCl)NCCCO1 (configuration not stated) [Cyclophosphamide]	103
CCCN[C@@H]1CCc2c(OC)cccc2[C@@H]1C [(+)-AJ 76 hydrochloride]	102

SMILES	nuclei count
C[C@]12COC(=O)C[C@@H]1CC[C@@H]1[C@@H]2CC[C@@]2(C)[C@H]1CC[C@]2(C)O [Oxandrolone]	88.1
CCOC(=O)c1ncn2c1CN(C)C(=O)c1cc(N=[N+]=[N-])ccc1-2	94.8
CCCN1CCO[C@@H]2c3cc(O)ccc3OC[C@H]21	106 and 96.6
Cc1sc2c(c1C)C(c1ccc(Cl)cc1)=N[C@@H](CC(=O)OC(C)(C)C)c1nnc(C)n1-2	87.6
C=CCN1CC[C@]2(C)c3cc(O)ccc3C[C@H]1C2C (single isomer, unassigned; (+))	94.7
CCC(=O)O[C@H]1CC[C@H]2[C@@H]3CCC4=CC(=O)CC[C@]4(C)[C@H]3CC[C@]12C [Testosterone propionate]	97.1
CCOc1cncc(/C=C/CCNC)c1 [TC 2559 difumarate]	97.2
COc1ccc(OC)c(C(O)C(C)N)c1 (configuration not stated) [Methoxamine hydrochloride]	91.4
Ic1cncc(OC[C@@H]2CCN2)c1	97.8
C(=C\c1ccccc1)/CN1CCN(CCOC(c2ccccc2)c2ccccc2)CC1	105
C[C@@H]1CN([C@H]2CC[C@](C#N)(c3ccc(F)cc3)CC2)CC[C@]1(C(=O)O)c1ccccc1 [Levocabastine hydrochloride]	87.2
c1ccc2sc(C3(N4CCCCC4)CCCCC3)cc2c1 [BTCP maleate]	106
O=C(CCCN1CCC(n2c(=O)[nH]c3ccccc32)CC1)c1ccc(F)cc1 [Benperidol]	85.4
C=CCC1(CC(C)C)C(=O)NC(=O)NC1=O [Butalbital]	107
O=C1C2CCN(CC2)C1(CO)CO	91.8
N[C@@H]1C[C@H]1c1ccccc1.N[C@H]1C[C@@H]1c1ccccc1 [Tranylcypromine hemisulfate]	108
C[C@]12CCC(=O)C=C1CC[C@@H]1[C@@H]2CC[C@]2(C)C(=O)CC[C@@H]12 [Androstenedione]	87.3
OC(c1ccccc1)(c1ccccc1)C1CCNCC1 [Azacyclonol]	108
COc1cc(N)c(Cl)cc1C(=O)NC1CN2CCC1CC2 (configuration not stated) [Zacopride hydrochloride]	98.7
COc1cc(OC)c(OC)cc1C=O [Asaraldehyde (Asaronaldehyde)]	109
C[N+]1(C)CCCC(OC(=O)C(O)(c2ccccc2)c2ccccc2)C1 (configuration not stated) [Mepenzolate bromide]	99.5
N=C(NCc1ccc(Cl)cc1)SCCCc1c[nH]cn1 [Clobenpropit dihydrobromide]	98.3
CCC1(C)CC(=O)NC(=O)C1 [Bemegride]	106
C[C@@]12C(=O)OC(=O)[C@]1(C)[C@H]1CC[C@@H]2O1 [Cantharidin]	84.8 ± 4.8
CCCC(C)(COC(N)=O)COC(=O)NC(C)C (configuration not stated) [Carisoprodol]	101
Cc1ccccc1-n1c(Cn2ncc3c(N)ncnc32)nc2cccc(C)c2c1=O	91.1

SMILES	nuclei count
C/C(O)=C(\C#N)C(=O)Nc1cc(Br)ccc1Br	94.3
Cc1ccc2c(c1)C1(CCN(CCc3nc(-c4ccccc4)oc3C)CC1)OC(=O)N2	101
C[C@]12CC[C@@H](O)C[C@H]1CC[C@@H]1[C@@H]2CC[C@]2(C)C(=O)CC[C@@H]12 [3-alpha-Hydroxy-5-beta-androstan-17-one]	99.8
CCN1CC2(OC(=O)c3ccccc3NC(C)=O)CCC(OC)C34C1C(CC23)C1(O)CC(OC)C2CC4C1(O)C2OC (configuration not stated) [Lappaconite HBr]	108
N[C@H](C(=O)O)c1cc(O)no1 [Ibotenic acid]	103
CN(C)C(=O)Oc1ccc[n+](C)c1 [Pyridostigmine iodide]	106
C[C@@H]1O[C@@H](O[C@@H]2C=C3CC[C@@H]4[C@H](CC[C@]5(C)[C@@H](c6ccc(=O)oc6)CC[C@]45O)[C@@]3(C)CC2)[C@H](O)[C@H](O)[C@H]1O [Proscillaridin A]	16.5
CN1CCN(c2nc3ccccc3nc2Cl)CC1	102
C#CCN(C)[C@H](C)Cc1ccccc1 [Selegiline hydrochloride]	98.2
COc1cc(C(=O)N2CC[C@@H](O)[C@@H](N)C2)cc2nc(-c3cc4ccccc4n3CC3CC3)n(C)c12	91.9
CC(C)(OO)c1ccccc1 [Cumene hydroperoxide]	67.6
O=c1[nH]c2ccccc2n1C1CCN(CCCC(c2ccc(F)cc2)c2ccc(F)cc2)CC1 [Pimozide]	93.8 ± 7.6
O=C(O)/C=C/CO [trans-4-Hydroxycrotonic acid]	102
Cc1cc2c(C(C)C)c(O)c(O)c(C=O)c2c(O)c1-c1c(C)cc2c(C(C)C)c(O)c(O)c(C=O)c2c1O [Gossypol]	88.6 ± 4.1
O=c1ccc2[nH]cc(C3=CCNCC3)c2[nH]1	107
FC(F)(F)c1cccc(C2=CCN(CCc3ccc4ccccc4c3)CC2)c1 [Xaliproden hydrochloride]	93.9
CC(=O)NCCc1c[nH]c2ccccc12 [N-Acetyltryptamine]	102
CC1=C2C[C@H]3[C@@H](CC=C4C[C@@H](O)CC[C@@]43C)[C@@H]2CC[C@]12O[C@@H]1C[C@H](C)CN[C@H]1[C@H]2C [Cyclopamine]	87.2
NCCc1c[nH]c2ccc(C(N)=O)cc12 [5-Carboxamidotryptamine maleate]	99.2
CC1(C)[C@@H](O)C[C@H]2[C@](C)(O)[C@@H]3CC[C@@H]4[C@@H](O)[C@@]3(C[C@@H](O)[C@@]21O)C[C@@]4(C)O [Grayanotoxin III]	98.7
O=c1[nH]c2ccc(Cl)cc2c(N[C@@H]2CN3CCC2CC3)c1-c1nc2ccccc2[nH]1	36 ± 0.89
Clc1ccc(N2CCN(Cc3c[nH]c4ncccc34)CC2)cc1 [L-745,870 trihydrochloride]	97.4
CC1OC(OC2/C=C/C=C/C=C/C=C/CC/C=C/C=C/[C@H](C)[C@@H](O)[C@@H](C)[C@H](C)OC(=O)CC(O)CC(O)CC(O)CCC(O)C(O)C[C@]3(O)CC(O)C(C(=O)O)C(C2)O3)C(O)C(N)C1O (some centres not stated) [Nystatine]	107
CN1CCN(c2ccc3ccccc3n2)CC1 [N-Methylquipazine dimaleate]	98.9
NCCCNCCSP(=O)(O)O [Amifostine]	93.5
